# Results from the supplement of paper PMC11876631.
# ± gives the standard deviation of the averaged measurements. Laboratory Escherichia coli strains with one amino-acid change in an essential protein, pooled on minimal glucose agar with carbenicillin or gentamicin at twice the control MIC (plus kanamycin and chloramphenicol for the plasmids), 48 h. Fold change of barcode share against drug-free plates; higher = less susceptible. Active = above 20 in both replicates (the paper's putatively resistant). '<' = one read or none on drug, '>' = one read or none on a drug-free plate. Shares are relative, so most strains fall below 1 when a few take over. Listed are strains with at least 15 reads on both drug-free plates, and hits; most hits rest on fewer reference reads. Replicate rank correlation about 0.5. Edits are read from barcodes.
# B1: plsB M430W (protein)
# chain: MSGWPRIYYKLLNLPLSILVKSKSIPADPAPELGLDTSRPIMYVLPYNSKADLLTLRAQCLAHDLPDPLEPLEIDGTLLPRYVFIHGGPRVFTYYTPKEESIKLFHDYLDLHRSNPNLDVQMVPVSVMFGRAPGREKGEVNPPLRMLNGVQKFFAVLWLGRDSFVRFSPSVSLRRMADEHGTDKTIAQKLARVARMHFARQRLAAVGPRLPARQDLFNKLLASRAIAKAVEDEARSKKISHEKAQQNAIALMEEIAANFSYEMIRLTDRILGFTWNRLYQGINVHNAERVRQLAHDGHELVYVPCHRSHMDYLLLSYVLYHQGLVPPHIAAGINLNFWPAGPIFRRLGAFFIRRTFKGNKLYSTVFREYLGELFSRGYSVEYFVEGGRSRTGRLLDPKTGTLSMTIQAMLRGGTRPITLIPIYIGYEHVWEVGTYAKELRGATKEKESLPQMLRGLSKLRNLGQGYVNFGEPMPLMTYLNQHVPDWRESIDPIEAVRPAWLTPTVNNIAADLMVRINNAGAANAMNLCCTALLASRQRSLTREQLTEQLNCYLDLMRNVPYSTDSTVPSASASELIDHALQMNKFEVEKDTIGDIIILPREQAVLMTYYRNNIAHMLVLPSLMAAIVTQHRHISRDVLMEHVNVLYPMLKAELFLRWDRDELPDVIDALANEMQRQGLITLQDDELHINPAHSRTLQLLAAGARETLQRYAITFWLLSANPSINRGTLEKESRTVAQRLSVLHGINAPEFFDKAVFSSLVLTLRDEGYISDSGDAEPAETMKVYQLLAELITSDVRLTIESATQGEG
# B2: plsB M430Q (protein)
# chain: MSGWPRIYYKLLNLPLSILVKSKSIPADPAPELGLDTSRPIMYVLPYNSKADLLTLRAQCLAHDLPDPLEPLEIDGTLLPRYVFIHGGPRVFTYYTPKEESIKLFHDYLDLHRSNPNLDVQMVPVSVMFGRAPGREKGEVNPPLRMLNGVQKFFAVLWLGRDSFVRFSPSVSLRRMADEHGTDKTIAQKLARVARMHFARQRLAAVGPRLPARQDLFNKLLASRAIAKAVEDEARSKKISHEKAQQNAIALMEEIAANFSYEMIRLTDRILGFTWNRLYQGINVHNAERVRQLAHDGHELVYVPCHRSHMDYLLLSYVLYHQGLVPPHIAAGINLNFWPAGPIFRRLGAFFIRRTFKGNKLYSTVFREYLGELFSRGYSVEYFVEGGRSRTGRLLDPKTGTLSMTIQAMLRGGTRPITLIPIYIGYEHVQEVGTYAKELRGATKEKESLPQMLRGLSKLRNLGQGYVNFGEPMPLMTYLNQHVPDWRESIDPIEAVRPAWLTPTVNNIAADLMVRINNAGAANAMNLCCTALLASRQRSLTREQLTEQLNCYLDLMRNVPYSTDSTVPSASASELIDHALQMNKFEVEKDTIGDIIILPREQAVLMTYYRNNIAHMLVLPSLMAAIVTQHRHISRDVLMEHVNVLYPMLKAELFLRWDRDELPDVIDALANEMQRQGLITLQDDELHINPAHSRTLQLLAAGARETLQRYAITFWLLSANPSINRGTLEKESRTVAQRLSVLHGINAPEFFDKAVFSSLVLTLRDEGYISDSGDAEPAETMKVYQLLAELITSDVRLTIESATQGEG
# B3: plsB M430D (protein)
# chain: MSGWPRIYYKLLNLPLSILVKSKSIPADPAPELGLDTSRPIMYVLPYNSKADLLTLRAQCLAHDLPDPLEPLEIDGTLLPRYVFIHGGPRVFTYYTPKEESIKLFHDYLDLHRSNPNLDVQMVPVSVMFGRAPGREKGEVNPPLRMLNGVQKFFAVLWLGRDSFVRFSPSVSLRRMADEHGTDKTIAQKLARVARMHFARQRLAAVGPRLPARQDLFNKLLASRAIAKAVEDEARSKKISHEKAQQNAIALMEEIAANFSYEMIRLTDRILGFTWNRLYQGINVHNAERVRQLAHDGHELVYVPCHRSHMDYLLLSYVLYHQGLVPPHIAAGINLNFWPAGPIFRRLGAFFIRRTFKGNKLYSTVFREYLGELFSRGYSVEYFVEGGRSRTGRLLDPKTGTLSMTIQAMLRGGTRPITLIPIYIGYEHVDEVGTYAKELRGATKEKESLPQMLRGLSKLRNLGQGYVNFGEPMPLMTYLNQHVPDWRESIDPIEAVRPAWLTPTVNNIAADLMVRINNAGAANAMNLCCTALLASRQRSLTREQLTEQLNCYLDLMRNVPYSTDSTVPSASASELIDHALQMNKFEVEKDTIGDIIILPREQAVLMTYYRNNIAHMLVLPSLMAAIVTQHRHISRDVLMEHVNVLYPMLKAELFLRWDRDELPDVIDALANEMQRQGLITLQDDELHINPAHSRTLQLLAAGARETLQRYAITFWLLSANPSINRGTLEKESRTVAQRLSVLHGINAPEFFDKAVFSSLVLTLRDEGYISDSGDAEPAETMKVYQLLAELITSDVRLTIESATQGEG
# B4: plsB M430P (protein)
# chain: MSGWPRIYYKLLNLPLSILVKSKSIPADPAPELGLDTSRPIMYVLPYNSKADLLTLRAQCLAHDLPDPLEPLEIDGTLLPRYVFIHGGPRVFTYYTPKEESIKLFHDYLDLHRSNPNLDVQMVPVSVMFGRAPGREKGEVNPPLRMLNGVQKFFAVLWLGRDSFVRFSPSVSLRRMADEHGTDKTIAQKLARVARMHFARQRLAAVGPRLPARQDLFNKLLASRAIAKAVEDEARSKKISHEKAQQNAIALMEEIAANFSYEMIRLTDRILGFTWNRLYQGINVHNAERVRQLAHDGHELVYVPCHRSHMDYLLLSYVLYHQGLVPPHIAAGINLNFWPAGPIFRRLGAFFIRRTFKGNKLYSTVFREYLGELFSRGYSVEYFVEGGRSRTGRLLDPKTGTLSMTIQAMLRGGTRPITLIPIYIGYEHVPEVGTYAKELRGATKEKESLPQMLRGLSKLRNLGQGYVNFGEPMPLMTYLNQHVPDWRESIDPIEAVRPAWLTPTVNNIAADLMVRINNAGAANAMNLCCTALLASRQRSLTREQLTEQLNCYLDLMRNVPYSTDSTVPSASASELIDHALQMNKFEVEKDTIGDIIILPREQAVLMTYYRNNIAHMLVLPSLMAAIVTQHRHISRDVLMEHVNVLYPMLKAELFLRWDRDELPDVIDALANEMQRQGLITLQDDELHINPAHSRTLQLLAAGARETLQRYAITFWLLSANPSINRGTLEKESRTVAQRLSVLHGINAPEFFDKAVFSSLVLTLRDEGYISDSGDAEPAETMKVYQLLAELITSDVRLTIESATQGEG
# B5: plsB M476W (protein)
# chain: MSGWPRIYYKLLNLPLSILVKSKSIPADPAPELGLDTSRPIMYVLPYNSKADLLTLRAQCLAHDLPDPLEPLEIDGTLLPRYVFIHGGPRVFTYYTPKEESIKLFHDYLDLHRSNPNLDVQMVPVSVMFGRAPGREKGEVNPPLRMLNGVQKFFAVLWLGRDSFVRFSPSVSLRRMADEHGTDKTIAQKLARVARMHFARQRLAAVGPRLPARQDLFNKLLASRAIAKAVEDEARSKKISHEKAQQNAIALMEEIAANFSYEMIRLTDRILGFTWNRLYQGINVHNAERVRQLAHDGHELVYVPCHRSHMDYLLLSYVLYHQGLVPPHIAAGINLNFWPAGPIFRRLGAFFIRRTFKGNKLYSTVFREYLGELFSRGYSVEYFVEGGRSRTGRLLDPKTGTLSMTIQAMLRGGTRPITLIPIYIGYEHVMEVGTYAKELRGATKEKESLPQMLRGLSKLRNLGQGYVNFGEPMPLWTYLNQHVPDWRESIDPIEAVRPAWLTPTVNNIAADLMVRINNAGAANAMNLCCTALLASRQRSLTREQLTEQLNCYLDLMRNVPYSTDSTVPSASASELIDHALQMNKFEVEKDTIGDIIILPREQAVLMTYYRNNIAHMLVLPSLMAAIVTQHRHISRDVLMEHVNVLYPMLKAELFLRWDRDELPDVIDALANEMQRQGLITLQDDELHINPAHSRTLQLLAAGARETLQRYAITFWLLSANPSINRGTLEKESRTVAQRLSVLHGINAPEFFDKAVFSSLVLTLRDEGYISDSGDAEPAETMKVYQLLAELITSDVRLTIESATQGEG
# B6: plsB M476Q (protein)
# chain: MSGWPRIYYKLLNLPLSILVKSKSIPADPAPELGLDTSRPIMYVLPYNSKADLLTLRAQCLAHDLPDPLEPLEIDGTLLPRYVFIHGGPRVFTYYTPKEESIKLFHDYLDLHRSNPNLDVQMVPVSVMFGRAPGREKGEVNPPLRMLNGVQKFFAVLWLGRDSFVRFSPSVSLRRMADEHGTDKTIAQKLARVARMHFARQRLAAVGPRLPARQDLFNKLLASRAIAKAVEDEARSKKISHEKAQQNAIALMEEIAANFSYEMIRLTDRILGFTWNRLYQGINVHNAERVRQLAHDGHELVYVPCHRSHMDYLLLSYVLYHQGLVPPHIAAGINLNFWPAGPIFRRLGAFFIRRTFKGNKLYSTVFREYLGELFSRGYSVEYFVEGGRSRTGRLLDPKTGTLSMTIQAMLRGGTRPITLIPIYIGYEHVMEVGTYAKELRGATKEKESLPQMLRGLSKLRNLGQGYVNFGEPMPLQTYLNQHVPDWRESIDPIEAVRPAWLTPTVNNIAADLMVRINNAGAANAMNLCCTALLASRQRSLTREQLTEQLNCYLDLMRNVPYSTDSTVPSASASELIDHALQMNKFEVEKDTIGDIIILPREQAVLMTYYRNNIAHMLVLPSLMAAIVTQHRHISRDVLMEHVNVLYPMLKAELFLRWDRDELPDVIDALANEMQRQGLITLQDDELHINPAHSRTLQLLAAGARETLQRYAITFWLLSANPSINRGTLEKESRTVAQRLSVLHGINAPEFFDKAVFSSLVLTLRDEGYISDSGDAEPAETMKVYQLLAELITSDVRLTIESATQGEG
# B7: plsB M476D (protein)
# chain: MSGWPRIYYKLLNLPLSILVKSKSIPADPAPELGLDTSRPIMYVLPYNSKADLLTLRAQCLAHDLPDPLEPLEIDGTLLPRYVFIHGGPRVFTYYTPKEESIKLFHDYLDLHRSNPNLDVQMVPVSVMFGRAPGREKGEVNPPLRMLNGVQKFFAVLWLGRDSFVRFSPSVSLRRMADEHGTDKTIAQKLARVARMHFARQRLAAVGPRLPARQDLFNKLLASRAIAKAVEDEARSKKISHEKAQQNAIALMEEIAANFSYEMIRLTDRILGFTWNRLYQGINVHNAERVRQLAHDGHELVYVPCHRSHMDYLLLSYVLYHQGLVPPHIAAGINLNFWPAGPIFRRLGAFFIRRTFKGNKLYSTVFREYLGELFSRGYSVEYFVEGGRSRTGRLLDPKTGTLSMTIQAMLRGGTRPITLIPIYIGYEHVMEVGTYAKELRGATKEKESLPQMLRGLSKLRNLGQGYVNFGEPMPLDTYLNQHVPDWRESIDPIEAVRPAWLTPTVNNIAADLMVRINNAGAANAMNLCCTALLASRQRSLTREQLTEQLNCYLDLMRNVPYSTDSTVPSASASELIDHALQMNKFEVEKDTIGDIIILPREQAVLMTYYRNNIAHMLVLPSLMAAIVTQHRHISRDVLMEHVNVLYPMLKAELFLRWDRDELPDVIDALANEMQRQGLITLQDDELHINPAHSRTLQLLAAGARETLQRYAITFWLLSANPSINRGTLEKESRTVAQRLSVLHGINAPEFFDKAVFSSLVLTLRDEGYISDSGDAEPAETMKVYQLLAELITSDVRLTIESATQGEG
# Biological target: Escherichia coli (laboratory strain)
# Assay: barcode share on antibiotic plates over drug-free plates; higher = less susceptible
# Details: antibiotic: carbenicillin; 2× MIC (3.1 µg/mL)
# Procedure: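 A pool of E. coli strains, each edited to carry one amino-acid change in an essential protein, was grown for 48 h on minimal glucose agar with or without antibiotic; strain barcodes were sequenced; mean of two replicates.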
row,Protein,fold change of barcode share
1,B1,1.22 ± 0.42
2,B2,0.589 ± 0.15
3,B3,0.245 ± 0.076
4,B4,0.367 ± 0.031
5,B5,0.368 ± 0.23
6,B6,0.254 ± 0.18
7,B7,0.224 ± 0.12

# Same assay, conditions: antibiotic: gentamicin; 2× MIC (MIC 0.45 µg/mL)
row,Protein,fold change of barcode share
1,B1,< 0.0103
2,B2,0.0198 ± 0.022
3,B3,< 0.00461
4,B4,0.125 ± 0.16
5,B5,0.0109 ± 0.0075
6,B6,0.142 ± 0.19
7,B7,< 0.00537
